Measurements: US20230095701A1, “Use of Albiflorin in Treatment of Coronavirus Pneumonia” (priority 2020, published 2023)

System: intestinal flora
Assay: Intestinal flora function and structure in CUMS rats (metabolomics, 16sDNA high-throughput metagenomic sequencing)
Conditions: 7 mg/kg/d, 7 days, FIG. 13

C[C@]12C[C@@H](O)[C@@H]3C[C@@]1(O[C@@H]1O[C@H](CO)[C@@H](O)[C@H](O)[C@H]1O)[C@@]3(COC(=O)c1ccccc1)C(=O)O2 [Albiflorin]
intestinal flora metabolism, multiple comparison analysis (PLS-DA): almost completely overlapped with the blank control group
